Test results taken from the BET-seq Pho4 binding data (Le et al. 2018).
Some of the results follow. Values were computed here from the reads of four pooled replicates and scatter widely.

molecular target: T1, Pho4 (S. cerevisiae) (UniProt P07270); assay: relative binding free energy (BET-seq); higher = weaker binding; conditions: reference: library average
T1 sequence: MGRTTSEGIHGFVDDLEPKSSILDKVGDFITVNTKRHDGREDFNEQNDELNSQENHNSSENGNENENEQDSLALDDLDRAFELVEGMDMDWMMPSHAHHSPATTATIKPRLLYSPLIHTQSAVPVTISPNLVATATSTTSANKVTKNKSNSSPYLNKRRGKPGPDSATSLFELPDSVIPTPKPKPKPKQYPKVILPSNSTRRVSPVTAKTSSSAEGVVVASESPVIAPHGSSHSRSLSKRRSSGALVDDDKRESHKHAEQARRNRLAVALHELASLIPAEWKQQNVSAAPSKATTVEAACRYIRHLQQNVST

Relative binding free energy, 0.39 kcal/mol:
AGTTACACGTGAATGG

Relative binding free energy, 0.2 kcal/mol:
GGCGGCACGTGATGTT
TCTATCACGTGTGATT
TATATCACGTGAGGTA
ATATTCACGTGCATGT

Relative binding free energy, 0.08 kcal/mol:
GGTGCCACGTGAAGGA
TTAATCACGTGGAGTA
AGTCTCACGTGTTGGT
AATATCACGTGGGGAT
AATGACACGTGTTAGT
GTTTACACGTGGTGGT
AGGTGCACGTGAGCAG

Relative binding free energy, 0.23 kcal/mol:
TCGTACACGTGACGGG
GGTTTCACGTGCTAAT
CATTTCACGTGATGGT
TAAAGCACGTGAAGGA
TCGTTCACGTGGGAAT
GCTGTCACGTGTGGGC

Relative binding free energy, -0.06 kcal/mol:
AGCGGCACGTGATGGG
TAGAACACGTGGGCTT
TATGGCACGTGCGTGA
ATGGCCACGTGTGCTG

Relative binding free energy, 0.17 kcal/mol:
ATGGGCACGTGAGATT
GCATGCACGTGATGTT
AGCTACACGTGATGTG
CTTTTCACGTGTACTT
GGGAACACGTGTGATT
TTTGACACGTGAGATA
CGTCTCACGTGGCGGG
TTACTCACGTGTTGGT

Relative binding free energy, 0.25 kcal/mol:
CGTTTCACGTGATGGA
AATTTCACGTGTATGG
GCGCTCACGTGTGGGG
ATGTCCACGTGATTAT
AATTTCACGTGCAGGG

Relative binding free energy, -0.16 kcal/mol:
TGGGGCACGTGGTAGC
TGGGGCACGTGTGCAC
TCGGCCACGTGGTGGT
TGAGGCACGTGTGTTA
ATATACACGTGTTGAT

Relative binding free energy, 0.02 kcal/mol:
AAGCACACGTGGCGGG
TGTGCCACGTGATGGT
TGATGCACGTGTGACT
AGGATCACGTGGCTGG
CAGGGCACGTGTCTTT

Relative binding free energy, 0.37 kcal/mol:
TTTTTCACGTGGAGGG
CGTCTCACGTGATAGG

Relative binding free energy, -0.02 kcal/mol:
TGTTACACGTGTCTTA
CTTATCACGTGGGGCT
GGTGGCACGTGGAGTA
CTATACACGTGTGTTA
TGTGGCACGTGACCTG

Relative binding free energy, 0.33 kcal/mol:
TTATTCACGTGTAGTC
TAGTTCACGTGTGCGT

Relative binding free energy, -0.03 kcal/mol:
TCTTGCACGTGATATT
GCGGGCACGTGTTGCG
GTTTGCACGTGGGTGG
AGTATCACGTGGTTAT
GAAGGCACGTGTGTTA

Relative binding free energy, -0.18 kcal/mol:
AGTCGCACGTGGTGTA
AGGGACACGTGGGCAT
TACAGCACGTGGTTGA
ACTGGCACGTGGGGCG

Relative binding free energy, -0.3 kcal/mol:
GTGCGCACGTGGGCTT

Relative binding free energy, -0.12 kcal/mol:
GGTAGCACGTGCGCGG

Relative binding free energy, 0.05 kcal/mol:
AATTGCACGTGATTAA
TATCACACGTGGGGGA

Relative binding free energy, -0.1 kcal/mol:
TTTGCCACGTGGTGGA
TCTGACACGTGGGGTT
TTTGGCACGTGTTACG
TTGCCCACGTGGGTAT
TAGAGCACGTGGGGAT
CTGTGCACGTGCGAGT
ATGGGCACGTGTCCGG
TATGTCACGTGTGAGC

Relative binding free energy, 0.21 kcal/mol:
CCGTTCACGTGGAGTG
TAGTGCACGTGAAGGT
CTTGTCACGTGATCGT

Relative binding free energy, -0.27 kcal/mol:
CTGGGCACGTGGCAGG

Relative binding free energy, -0.07 kcal/mol:
GGTGGCACGTGCAAGG
AGTTGCACGTGGTATT
TTCTGCACGTGGTTTT
GGCTACACGTGGGTGA
TGAAACACGTGTTTTT
TGTACCACGTGGTCTT
TGGTCCACGTGTCGTT
TTTGACACGTGGTCGG

Relative binding free energy, 0.13 kcal/mol:
ATGGTCACGTGGATGA

Relative binding free energy, 0.36 kcal/mol:
TAGGCCACGTGAAGTG
ATATTCACGTGATTGG
GGTCTCACGTGTACGT

Relative binding free energy, -0.01 kcal/mol:
GTTAGCACGTGGATGC
GTGGTCACGTGGGAGG
TGGGCCACGTGTAGGG
TGGGACACGTGTTAGT
TTGAGCACGTGTGATG

Relative binding free energy, 0.26 kcal/mol:
ACGCTCACGTGAGGGG

Relative binding free energy, 0.27 kcal/mol:
TTAAACACGTGAGTTT
AAATTCACGTGTTTGG
ATCTTCACGTGGAGTG
TCGGTCACGTGTGGCT
TAGTTCACGTGATTTA
GGGTTCACGTGGGCAG

Relative binding free energy, 0.06 kcal/mol:
AATTCCACGTGGCGGG
TATATCACGTGGTGAG
AGTATCACGTGGTGCG
GGGCGCACGTGTTAAT
GTCGGCACGTGATGGT
TGGTACACGTGGTTGT
GGTGGCACGTGTGAAT

Relative binding free energy, 0.31 kcal/mol:
TTATTCACGTGTCGAG
TCTATCACGTGTGGCT

Relative binding free energy, -0.29 kcal/mol:
GTCCGCACGTGGTGGG
ATTGGCACGTGGCTGA

Relative binding free energy, -0.13 kcal/mol:
GGTGGCACGTGGGGAG
TTTGACACGTGACGTT
GATTGCACGTGGGTGC
GGTGGCACGTGGGAAA
TTAGTCACGTGCTCGG

Relative binding free energy, 0.22 kcal/mol:
AAGATCACGTGTGAGT
GGGTACACGTGAGAGA
TCGGGCACGTGAATAG
ACCGTCACGTGTTTTG

Relative binding free energy, -0.19 kcal/mol:
AAGGGCACGTGGTGCG
TGTGGCACGTGGCGCT

Relative binding free energy, -0.21 kcal/mol:
AGAGGCACGTGGTGTG
ACAGGCACGTGGTTGT

Relative binding free energy, 0.18 kcal/mol:
TTCGACACGTGCGGTT
AGATTCACGTGGTATG
AGGTACACGTGAATGT

Relative binding free energy, 0.09 kcal/mol:
AACTGCACGTGTTGGT
TTTATCACGTGGCGAT
AATAACACGTGAGTGG
ATTGACACGTGGAAGT

Relative binding free energy, -0.08 kcal/mol:
TTCTGCACGTGGGAAG
GTAAACACGTGGCGGG
AGTCACACGTGGGTGA
AACGACACGTGGTGGT
GAGCGCACGTGTTGTG
GGGTGCACGTGGCGAA
TAAGTCACGTGGGTCT

Relative binding free energy, -0.15 kcal/mol:
CTTTGCACGTGGTAAT
ATTGGCACGTGTCTGA
AGATGCACGTGGGGAA

Relative binding free energy, 0.12 kcal/mol:
CATGTCACGTGATGAG
TGGTACACGTGTGACG
ATGTACACGTGAGATT
GTGTACACGTGATCTG
TTTATCACGTGTATGG
CCTTGCACGTGATGGT
GGTGTCACGTGGGCTC

Relative binding free energy, 0.29 kcal/mol:
TTGGTCACGTGAAGAA
TTCTTCACGTGATATA
GGATTCACGTGGGTGA

Relative binding free energy, -0.04 kcal/mol:
TGTAACACGTGTTTTA
GGAGGCACGTGTACTT

Relative binding free energy, 0.34 kcal/mol:
AGTTACACGTGAAGAT

Relative binding free energy, -0.09 kcal/mol:
GGTCGCACGTGGCGGC
TGTTGCACGTGGTCTC
TGCGGCACGTGTCGAG
ATTAACACGTGTTTGG

Relative binding free energy, 0 kcal/mol:
TTAGTCACGTGTACAT
TTTTCCACGTGGTGGT
TATAACACGTGGAAGT
TGCAGCACGTGTTGAG
AGTGTCACGTGTCTTT
ATGCACACGTGGTTAT
ATTGGCACGTGATTCG
TGGGTCACGTGCGTCG
GTTAGCACGTGGTTTA
ACTTGCACGTGGTAGA

Relative binding free energy, -0.05 kcal/mol:
GTAGGCACGTGTCGGC
AGGGCCACGTGATTTG

Relative binding free energy, 0.14 kcal/mol:
TTGGACACGTGGAAGC
GAGTTCACGTGCTAGT
TTTTACACGTGATATA
GGTACCACGTGAAGGT
TTATACACGTGTGGAG

Relative binding free energy, -0.37 kcal/mol:
GTGCGCACGTGGGCGG

Relative binding free energy, 0.07 kcal/mol:
GGCGTCACGTGGGTAC
GTAGACACGTGATGGT

Relative binding free energy, 0.01 kcal/mol:
AAAAGCACGTGGATAG
AGTAGCACGTGTGGTA
GGGGGCACGTGTGACA
TCGTGCACGTGTGAAG

Relative binding free energy, 0.16 kcal/mol:
GTTTTCACGTGGTACT
TTGTTCACGTGGGGCT
CGTATCACGTGTGGGG
GGAATCACGTGTGTAG
ATTTCCACGTGAGTGG
TTAGTCACGTGTAACG

Relative binding free energy, -0.14 kcal/mol:
TTGGGCACGTGTCCTG
TGCACCACGTGTTGGG
CTAGTCACGTGGGGAT
TGTCGCACGTGGGAGT

Relative binding free energy, -0.28 kcal/mol:
TGTACCACGTGGGGTA

Relative binding free energy, 0.15 kcal/mol:
ACAGTCACGTGTAAGT
TTCATCACGTGGCTGT
GTTGTCACGTGGCGTG
ATTATCACGTGCAGTG
CAGAACACGTGTGGGA
AAGATCACGTGTAGGG

Relative binding free energy, 0.03 kcal/mol:
GCAGACACGTGGTGGA
TAGCACACGTGTTTGG
ATATTCACGTGGGTGC

Relative binding free energy, -0.25 kcal/mol:
AGTTGCACGTGGGTAC
TAGAGCACGTGCTAGG

Relative binding free energy, 0.28 kcal/mol:
ATGGTCACGTGTAAGG
TTGTTCACGTGGTGTT
GTAATCACGTGAGGAT

Relative binding free energy, -0.17 kcal/mol:
GTGGCCACGTGGTATG
AAGGGCACGTGTTATA

Relative binding free energy, 0.24 kcal/mol:
GTTAACACGTGTGAGA
CGCGTCACGTGAAGGG
GGGCTCACGTGGTTGG

Relative binding free energy, 0.19 kcal/mol:
ATCTTCACGTGATTAT
GAGTGCACGTGTAGAT
ATGGTCACGTGATGGT

Relative binding free energy, 0.04 kcal/mol:
CTTTTCACGTGGTGCT
AATGTCACGTGTACGT

Relative binding free energy, 0.1 kcal/mol:
CTAATCACGTGGTAGT
CAGGTCACGTGCGGCG
TTGTGCACGTGAGACT
TAGGCCACGTGAGTTT

Relative binding free energy, 0.32 kcal/mol:
GGTCTCACGTGTGTTT

Relative binding free energy, 0.11 kcal/mol:
AGAGTCACGTGTATTT
CGGCGCACGTGAGGCG
GGGTACACGTGACTGG

Relative binding free energy, -0.22 kcal/mol:
TAAGGCACGTGGCTGG

Relative binding free energy, -0.31 kcal/mol:
CGGGGCACGTGCGTGA
